According to article PMC5892938:
Some of the results follow. Construct or isoform of the protein are uncertain.

Molecular target: GST-SBP-ILF3 (Homo sapiens) (UniProt Q12906)
Assay: targeted RNA Bind-n-Seq
Conditions: RBNS binding buffer: 25 mM Tris pH 7.5, 150 mM KCl, 3 mM MgCl2, 0.1% Tween, 0.5 mg/mL BSA, 1 mM DTT; 27 nM protein, 750 pM RNA pool; temperature not stated; high values mean tight binding; sequences stand for … in GGGUAAAAGCGAGGUGAA…CGGGACAAGUAUUAUGGG

| Sequence | binding signal (log2 fold change) |
| --- | --- |
| UUUUUUUUUUGAGACGGUGGCCGUUUCCUG [tttttgagapaired] | 0.965 |
| UUUUUUUUUUGAGAUCGGGCCGAUCUCCUG [tttttgagapaired] | 0.561 |
| GUGUGGUGUGUUGGUCUCUAACACACCAUA [gtspaired] | -0.472 |
| GUGUGGUGUGUUGGACUCUAACACACUACA [gtspaired] | -0.373 |
| UUUUUUUUUUGAGACCGCGGCGGUCUCCUA [tttttgagapaired] | 0.867 |
| GUGUGGUGUGUUGGUUCCUAACACAUCGCG [gtspaired] | -0.884 |
| GUGUGUGGUGUUGGUACCUAACACCGCGCG [gtspaired] | -0.497 |
| UUUUUUUUUUGAGAACGUGACGUUCUUCUG [tttttgagapaired] | 0.506 |
| UUUUUUUUUUGAGAUGGUUCCCAUCUCCAG [tttttgagapaired] | 0.123 |
| UUUUUUUUUUGAGAGGGCUCCCCUUUCCAG [tttttgagapaired] | 0.696 |
| GUGUGGUGUGUUGGUCCCUAACACAUCGCA [gtspaired] | -0.589 |
| GUGUGUGGUGUUGGACCCUAACACCGCACG [gtspaired] | -0.365 |
| GUGUGGUGUGUUGGAUCCUAACACAUCACA [gtspaired] | -0.785 |
| GGUUGUUGUGUUGGCCUCUAACACAACGAC [gtspaired] | 0.0417 |
| UUUUUUUUUUGAGAGCGUAUCGCUCUCCUA [tttttgagapaired] | -0.0803 |
| GUGGUGUGUGUUGGUUCCUAACACACGCCG [gtspaired] | -0.249 |
| UUUUUUUUUUGAGAGGGGGUCCCUCUCCGG [tttttgagapaired] | 0.859 |
| UUUUUUUUUUGAGACGGAAGCCGUUUCCUG [tttttgagapaired] | 0.52 |
| GGUUGUGGUGUUGGCCCCUAACACCAUAAC [gtspaired] | -0.122 |
| UUUUUUUUUUGAGAUCGGGCCGAUCUCCUA [tttttgagapaired] | 0.323 |
| GUGUGUGGUGUUGGCCUCUAACACCGCACA [gtspaired] | -0.178 |
| UUUUUUUUUUGAGACUGUGUCAGUUUCCAG [tttttgagapaired] | 0.721 |
| UUUUUUUUUUGAGAGCGGUGCGUUCUUCUA [tttttgagapaired] | 0.498 |
| GGUGUUGGUGUUGGCCUCUAACACCAGCGC [gtspaired] | -0.537 |
| GUGGUGUGUGUUGGCGCCUAACACACAUCA [gtspaired] | -0.335 |
| UUUUUUUUUUGAGAUGGACUCUAUCUCCGG [tttttgagapaired] | 0.0974 |

| Sequence | binding signal (log2 fold change) |
| --- | --- |
| GGUGGUGGUGUUGGUACCUAACACCAUCGC [gtspaired] | -0.329 |
| UUUUUUUUUUGAGACCGAUUCGGUCUCCAG [tttttgagapaired] | 0.00113 |
| UUUUUUUUUUGAGACUGAAUCAGUCUCCUG [tttttgagapaired] | 0.123 |
| UUUUUUUUUUGAGACUGUAUCAGUCUCCUG [tttttgagapaired] | 0.298 |
| GGUGGUGGUGUUGGCUUCUAACACCGCUAC [gtspaired] | -0.643 |
| GGUGUGUGUGUUGGAGCCUAACACAUACGC [gtspaired] | -0.545 |
| UUUUUUUUUUGAGAGCGAAGCGUUCUCCAG [tttttgagapaired] | 0.121 |
| UUUUUUUUUUGAGAUCGAGGCGAUCUUCUG [tttttgagapaired] | 0.176 |
| UUUUUUUUUUGAGAGGGUGACCCUCUUCUA [tttttgagapaired] | 0.0182 |
| UUUUUUUUUUGAGACGGAAACCGUCUCCUA [tttttgagapaired] | 0.0242 |
| UUUUUUUUUUGAGAUGGGGACCAUCUCCGG [tttttgagapaired] | 0.356 |
| UUUUUUUUUUGAGACUGCUCCAGUCUCCGG [tttttgagapaired] | 0.88 |
| UUUUUUUUUUGAGACGGGGGCUGUCUCCUG [tttttgagapaired] | 1.08 |
| UUUUUUUUUUGAGAGCGGGACGCUCUCCUG [tttttgagapaired] | 0.418 |
| UUUUUUUUUUGAGAGGGUACCCCUCUUCUG [tttttgagapaired] | 0.227 |
| UUUUUUUUUUGAGACUGGGUCAGUCUCCAG [tttttgagapaired] | 0.335 |
| GUGUGUGGUGUUGGUACCUAACACCACGCG [gtspaired] | -0.932 |
| GUGUGUGGUGUUGGCGCCUAACACCGCACA [gtspaired] | -0.351 |
| UUUUUUUUUUGAGACGGUUUCUGUCUUCUG [tttttgagapaired] | 0.494 |
| UUUUUUUUUUGAGACGGCGACCGUCUCCUG [tttttgagapaired] | 0.539 |
| UUUUUUUUUUGAGAUCGGGACGGUCUUCUA [tttttgagapaired] | 0.339 |
| GGUGGUGGUGUUGGCCCCUAACACCAUCGC [gtspaired] | -0.0538 |
| GGUUGUGGUGUUGGAACCUAACACCGCGAC [gtspaired] | -0.646 |
| GGUGUUGGUGUUGGACUCUAACACCAGCGC [gtspaired] | -0.406 |
| UUUUUUUUUUGAGAUGGACUCCAUCUUCUA [tttttgagapaired] | 0.0128 |
| UUUUUUUUUUGAGAGGGAGCCCUUCUCCAG [tttttgagapaired] | 0.407 |

| Sequence | binding signal (log2 fold change) |
| --- | --- |
| UUUUUUUUUUGAGACGGAGUCCGUCUUCUG [tttttgagapaired] | 0.684 |
| UUUUUUUUUUGAGAGGGUGGCCCUUUCCAG [tttttgagapaired] | 0.673 |
| UUUUUUUUUUGAGACGGUCUCUGUCUCCUG [tttttgagapaired] | 1 |
| GGUUGUGGUGUUGGCGCCUAACACCACGAC [gtspaired] | -0.376 |
| UUUUUUUUUUGAGACGGAUACCGUCUUCUG [tttttgagapaired] | 0.69 |
| GUGUGUGGUGUUGGCUUCUAACACCGCGCA [gtspaired] | -0.601 |
| UUUUUUUUUUGAGACUGUGACAGUUUCCAG [tttttgagapaired] | 0.463 |
| UUUUUUUUUUGAGACGGUCUCCGUCUCCAG [tttttgagapaired] | 0.525 |
| UUUUUUUUUUGAGAGCGACGCGUUCUCCAG [tttttgagapaired] | 0.777 |
| UUUUUUUUUUGAGACGGAAACCGUCUUCUA [tttttgagapaired] | 0.155 |
| UUUUUUUUUUGAGACGGCAACCGUUUCCUA [tttttgagapaired] | 0.51 |
| UUUUUUUUUUGAGAGGGGAUCCCUUUCCGG [tttttgagapaired] | 0.252 |
| UUUUUUUUUUGAGAUGGUAACCAUUUCCGG [tttttgagapaired] | 0.356 |
| UUUUUUUUUUGAGACCGGUUCGGUCUCCUA [tttttgagapaired] | 0.518 |
| GUGGUGUGUGUUGGAACCUAACACACAUCG [gtspaired] | -0.496 |
| UUUUUUUUUUGAGAUGGCUUCCAUCUCCAG [tttttgagapaired] | 0.32 |
| UUUUUUUUUUGAGACGGGAUCUGUUUCCAG [tttttgagapaired] | 0.624 |
| GUGUGUGGUGUUGGAGCCUAACACCACAUA [gtspaired] | -0.671 |
| GUUGUGUGUGUUGGCACCUAACACACACAG [gtspaired] | -0.841 |
| UUUUUUUUUUGAGACUGAGUCAGUCUCCAG [tttttgagapaired] | 0.306 |
| GUGUGGUGUGUUGGUUCCUAACACAUCGCA [gtspaired] | -0.699 |
| GUGGUUGGUGUUGGUCCCUAACACCAACUA [gtspaired] | -0.347 |
| GGUGUGUGUGUUGGCAUCUAACACAUACAC [gtspaired] | -0.432 |
| UUUUUUUUUUGAGAGCGACACGCUCUCCGG [tttttgagapaired] | 0.277 |
| UUCUUCCUUCCUCCGCCGGAGGAGGGGAGA [ctspaired] | -0.204 |
| UUUUUUUUUUGAGACCGAGGCGGUUUCCGG [tttttgagapaired] | 0.749 |

| Sequence | binding signal (log2 fold change) |
| --- | --- |
| GGUUGGUGUGUUGGCAUCUAACACACUAAC [gtspaired] | -0.694 |
| UUUUUUUUUUGAGAGCGAAACGCUCUUCUA [tttttgagapaired] | -0.361 |
| GUUGUGUGUGUUGGCGUCUAACACACGCAA [gtspaired] | -0.607 |
| UUUUUUUUUUGAGAGCGGAGCGCUCUCCUA [tttttgagapaired] | 0.0973 |
| GGUGGUGGUGUUGGCCCCUAACACCGCUAC [gtspaired] | -0.501 |
| UUUUUUUUUUGAGACCGGGCCGGUCUUCUA [tttttgagapaired] | 0.592 |
| UUUUUUUUUUGAGACGGACUCCGUCUCCUG [tttttgagapaired] | 0.571 |
| UUUUUUUUUUGAGAGUGAAACACUCUCCUG [tttttgagapaired] | 0.268 |
| UUUUUUUUUUGAGAGCGGGACGCUCUCCAG [tttttgagapaired] | 0.485 |
| UUUUUUUUUUGAGACUGGGGCAGUCUCCGG [tttttgagapaired] | 0.642 |
| UUUUUUUUUUGAGAACGAAGCGUUCUUCUA [tttttgagapaired] | -0.0147 |
| GUGGUGUGUGUUGGAGUCUAACACACAUCG [gtspaired] | -0.536 |
| UUUUUUUUUUGAGACCGAUUCGGUUUCCAG [tttttgagapaired] | 0.104 |
| UUUUUUUUUUGAGAGUGCGACAUUCUCCUA [tttttgagapaired] | 0.166 |
| GGUUGGUGUGUUGGCACCUAACACACCGAC [gtspaired] | -0.959 |
| UUUUUUUUUUGAGAGGGAUACCCUCUCCAG [tttttgagapaired] | 0.0898 |
| UUUUUUUUUUGAGACGGGAUCUGUCUUCUA [tttttgagapaired] | 0.327 |
| GUGUGGUGUGUUGGCACCUAACACAUCGCA [gtspaired] | -0.599 |
| GUGUGUGGUGUUGGCUUCUAACACCAUACG [gtspaired] | -0.69 |
| UUUUUUUUUUGAGACUGAUGCAGUCUCCUG [tttttgagapaired] | 0.531 |
| GUGUGUGGUGUUGGCCCCUAACACCACGCA [gtspaired] | -0.232 |
| GUGGUUGGUGUUGGAACCUAACACCAGCCG [gtspaired] | -0.524 |
| UUUUUUUUUUGAGAGGGCGCCCCUCUCCUG [tttttgagapaired] | 0.802 |
| UUUUUUUUUUGAGAUGGAGGCCAUCUCCUG [tttttgagapaired] | 0.375 |
| UUUUUUUUUUGAGACGGCGACCGUCUUCUA [tttttgagapaired] | 0.687 |
